Experimental data as given in the supplement of paper PMC10369915.
The other results are listed elsewhere or left out. Cut-off read from the data, not from the text of the source: active = 3.2 or more and inactive = the rest. Most of these values are background signal.

B1: LRRC7_Y1058 (peptide)
chain: QHNPEYVQQAS
B2: LRRK2_Y2023_I2020T_YF (peptide)
chain: FGTAQYCCRMG
B3: LRRK2_Y707 (peptide)
chain: VAMDDYLKNVM
B4: LRRC7_Y234 (peptide)
chain: LKMLVYLDMSK
B5: LTK_Y676_R673Q_YF (peptide)
chain: IFQASYFRRGD
B6: LY75_Y888_D884A (peptide)
chain: DAHFTYSRYPW
B7: LRRC7_Y234_L235M (peptide)
chain: LKMLVYMDMSK
B8: LY75_Y888_YF (peptide)
chain: DDHFTYSRFPW
B9: LY75_Y888 (peptide)
chain: DDHFTYSRYPW
B10: LTK_Y677 (peptide)
chain: YRASYYRRGDR
B11: LTK_Y676_YF (peptide)
chain: IFRASYFRRGD
B12: LRRK2_Y2023_G2019S_YF (peptide)
chain: FSIAQYCCRMG
B13: LSP1_Y234 (peptide)
chain: QWLEQYTQAIE
B14: LRRK2_Y2023_I2020T (peptide)
chain: YGTAQYCCRMG
B15: LRRK2_Y1402 (peptide)
chain: GREEFYSTHPH
B16: LRRC7_Y1058_S1063T (peptide)
chain: QHNPEYVQQAT
B17: LY9_Y603 (peptide)
chain: GENTMYAQVFN
B18: LSP1_Y234_Q229K (peptide)
chain: KWLEQYTQAIE
B19: LRRC7_Y1058_H1054Y (peptide)
chain: QYNPEYVQQAS

Assays:
Assay in all cases: enrichment score (SH2-bound / input frequency) (ratio); bacterial display of known human phosphotyrosine sites (pTyr-Var adds point mutants) read by sequencing; higher = stronger binding; tyrosines were phosphorylated by kinases first
Details in all cases: peptide library: pTyr-Var
SHP2 C-SH2 domain E139D = molecular target: SHP2 C-SH2 domain E139D
[1] = molecular target: SHP2 C-SH2 domain wild-type
SHP2 N-SH2 domain L43F = molecular target: SHP2 N-SH2 domain L43F
SHP2 N-SH2 domain T42A = molecular target: SHP2 N-SH2 domain T42A
SHP2 N-SH2 domain T52S = molecular target: SHP2 N-SH2 domain T52S
[2] = molecular target: SHP2 N-SH2 domain wild-type
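Note: displayed peptides selected on beads carrying the immobilized SH2 domain, with library peptides lacking any tyrosine serving as negative controls.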

Binder | enrichment score (SHP2 C-SH2 domain E139D) | enrichment score [1] | enrichment score (SHP2 N-SH2 domain L43F) | enrichment score (SHP2 N-SH2 domain T42A) | enrichment score (SHP2 N-SH2 domain T52S) | enrichment score [2]
B1 | inactive: 0.4 | inactive: 0.36 | inactive: 0.34 | inactive: 0.522 | inactive: 0.451 | inactive: 0.61
B2 | inactive: 1.28 | inactive: 1.08 | inactive: 0.97 | inactive: 0.995 | inactive: 0.993 | inactive: 0.84
B3 | inactive: 0.781 | inactive: 0.807 | inactive: 0.98 | inactive: 0.79 | inactive: 0.821 | inactive: 0.895
B4 | inactive: 2.61 | inactive: 2.7 | inactive: 2.4 | inactive: 2.3 | inactive: 2.25 | active: 3.28
B5 | inactive: 0.315 | inactive: 0.316 | inactive: 0.403 | inactive: 0.355 | inactive: 0.25 | inactive: 0.391
B6 | inactive: 0.887 | inactive: 0.857 | inactive: 1.07 | inactive: 0.742 | inactive: 0.881 | inactive: 0.857
B7 | inactive: 1.71 | inactive: 1.6 | inactive: 1.62 | inactive: 1.35 | inactive: 1.91 | inactive: 1.95
B8 | inactive: 0.938 | inactive: 0.802 | inactive: 0.95 | inactive: 0.791 | inactive: 0.835 | inactive: 0.828
B9 | inactive: 0.814 | inactive: 0.6 | inactive: 0.713 | inactive: 0.734 | inactive: 0.678 | inactive: 0.497
B10 | inactive: 0.211 | inactive: 0.283 | inactive: 0.218 | inactive: 0.263 | inactive: 0.315 | inactive: 0.228
B11 | inactive: 0.272 | inactive: 0.243 | inactive: 0.261 | inactive: 0.307 | inactive: 0.242 | inactive: 0.207
B12 | inactive: 1.77 | inactive: 1.51 | inactive: 1.65 | inactive: 1.15 | inactive: 1.46 | inactive: 1.39
B13 | inactive: 1.04 | inactive: 0.765 | inactive: 1.04 | inactive: 0.931 | inactive: 1.09 | inactive: 0.571
B14 | inactive: 0.786 | inactive: 0.807 | inactive: 0.78 | inactive: 0.736 | inactive: 0.774 | inactive: 0.873
B15 | inactive: 1.01 | inactive: 0.946 | inactive: 0.872 | inactive: 0.776 | inactive: 0.804 | inactive: 0.841
B16 | inactive: 0.589 | inactive: 0.621 | inactive: 1.02 | inactive: 0.323 | inactive: 0.477 | inactive: 0.551
B17 | inactive: 1.7 | inactive: 2.77 | inactive: 0.929 | inactive: 2.52 | inactive: 1.11 | inactive: 0.643
B18 | inactive: 1.36 | inactive: 1.23 | inactive: 1.03 | inactive: 1.01 | inactive: 1.06 | inactive: 1.16
B19 | inactive: 1.03 | inactive: 0.908 | inactive: 0.969 | inactive: 0.858 | inactive: 0.74 | inactive: 0.829
